From the supplement of paper PMC8728848
This is one part of a sample in which the strongest signals are shown more often than they occur.

Key:
Assay in all cases: glycan array binding signal (z-score within array); higher = stronger binding
Conditions in all cases: glycan notation: IUPAC condensed, linker removed
Gal3S(b1-4)GlcNAc6S = tested on: Gal3S(b1-4)GlcNAc6S
Summary of the method: (§1)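 The binding signal is a Z-score computed within each array and averaged over linkers. Arrays of the same protein sequence at different concentrations or buffers were also averaged together. Data originate from 3228 arrays in the Consortium for Functional Glycomics database, kept only where the protein sequence was available.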

Gal3S(b1-4)GlcNAc = tested on: Gal3S(b1-4)GlcNAc
Summary of the method: as §1

[1] = tested on: Gal3S(b1-4)[Fuc(a1-3)]Glc6S
Summary of the method: as §1

[2] = tested on: Gal3S(b1-4)[Fuc(a1-3)]GlcNAc
Summary of the method: as §1

[3] = tested on: Gal3S(b1-4)[Fuc(a1-3)]Glc
Summary of the method: as §1

H-Ficolin (Homo sapiens) (chain not printed)
glycan array binding signal (z-score) (Gal3S(b1-4)GlcNAc6S): 0.307

Galectin-8 C-terminal CRD (Homo sapiens) (chain not printed)
glycan array binding signal (z-score) (Gal3S(b1-4)GlcNAc6S): 0.562

STIM-3 (Mus musculus) (chain not printed)
glycan array binding signal (z-score) (Gal3S(b1-4)GlcNAc): -0.193

FGF2 (chain not printed)
glycan array binding signal (z-score) [1]: 1.88 | glycan array binding signal (z-score) [2]: -0.77

Siglec-2 (Homo sapiens) (chain not printed)
glycan array binding signal (z-score) [3]: -0.071
